B1: CPEB3 Ribozyme (parent)
chain: UAACAGGGGGCCACAGCAGAAGCGUUCACGUCGCAGCCCCUGUCAGAUUCUGGUGAAUCUGCGAAUUCUGCUGUAUAUCUC

Read counts are not given, so values of variants with three or more changes are uncertain.

In this series the parent is B1. The series is described as follows: self-cleavage, relative activity (ratio to wild type); higher = more cleavage; in vitro, sequencing. Put shortly:
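After error-prone PCR and barcoding, CPEB3 ribozyme mutant libraries were transcribed with T7 RNA polymerase at 37°C for 5 hours, then given 15 min with DNase I before an EDTA stop, and they cleaved during both steps. Reverse transcription with template switching preceded Illumina sequencing. Relative activity divides a variant's cleaved/total read fraction by the unmutated ribozyme's. At least 5 reads were required per variant, and three batches were averaged.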
With A2U G10A G24U C27G C62G A64U U69A, the self-cleavage is 0.04.
For the variant A3G A5G A20G A45G U72C, the self-cleavage stood at 1.03.
Under A3G C12G A35G U43C A64G stands 0.05; under A3G A21G U43A C62U U76C, 0.13.
For A3G A5G U26A U31A U72C U78C, the self-cleavage worked out at 0.22.
The result for A3G C11U A28U A45U G73C A77U reads 0.46; that for A3G A15U A21G U26C U43C U76C C81U, 0.05.
Regarding A3G A20G U31C C32U U58A A77G, the self-cleavage amounted to 0.29.
Consider A3G A18U U49C U78C, for which the self-cleavage stood at 0.25.
The result for A3G G7A A13U A64G reads 0.27; that for A3G G6A C12G A28G, 0.34.
The result for A3G A18G A57G reads 0.63; that for A3G A5G A13G U66A, 0.65; that for A3G C39A U41A A56G U78C, 0.32.
The result for A2U U43A U54G A57G reads 0.56; that for A3G A15G A47G C68A, 0.27; that for A3G A18G C29A G33A A65G U78C, 0.17.
In the case of A3G A5G G8C U54C U58C, the self-cleavage was 0.5.
The result for A3C G9C A35U U41C A57G G61U reads 0.09; that for A3G A35U U72C, 0.51; that for A3G G6A A15U A47G U48A U60C A64U, 0.05.
The result for A3G A5G A45G U78C reads 0.69.
For A3G A35U U58C, the self-cleavage is 0.25.
The result for A3G A15G G33A reads 0.47.
The result for A3C C12U U41G U66C U78A reads 0.1; that for A3G A18U A56U U67C, 0.18.
The result for A3G G6A A15U A18G A45G A47C reads 0.1; that for A3G A5U A56G A57G U67A C81A, 0.2; that for A3C A5C U66A, 0.54.
Take A3G G7A A45G U49C U51A G52C: the self-cleavage is 0.07.
Under A3G C40U A77C stands 0.63.
On to A3G G6U G7U G9U A13G G33A, for which the self-cleavage was 0.12.
Take A3G A45U U74C: the self-cleavage is 0.78.
For the variant A3G A15G A56G, the self-cleavage stood at 0.9.
For the variant A3G A13U C29G G53A U80G, the self-cleavage worked out at 0.18.
In the case of A3G C11U U31C, the self-cleavage came out at 0.54.
The result for A3G A18U C29A U60C U80C reads 0.41; that for A3G A18U G36A U43C U49C U76A, 0.13; that for A3G A21G U41C A64G U80C, 0.33.
With A3G A13G U26A U41C U60C A65G, the self-cleavage turned out to be 0.12.
The result for A3G C32U U66C U80C reads 0.32.
The result for A2U U26A A64U U72C reads 0.3; that for A3G A13U C27U C62U, 0.2.
A3G A15G A18G A57G U76A: the self-cleavage stood at 0.29.
The result for A3G C38U A56G U74C U76A reads 0.44; that for A3C A21G C40A U43C U76C, 0.03.
For the variant A3G A35G U41A U49A U54A U58C, the self-cleavage is 0.11.
Under A3G A13U A35U C44U U69C stands 0.15; under A3G A13U U43A U72A A77G, 1.05; under A3G A5G A15U U25C, 0.69.
Take A3G A13U A15G: the self-cleavage turned out to be 0.72.
With A3G C12U A35U A57C, the self-cleavage is 0.26.
Take A3G A47U U66G: the self-cleavage worked out at 0.27.
A3G A13U A15G U31C: the self-cleavage was 0.17.
Under A3G A5U A28G U49C stands 0.6; under A3G A20G A47G U69A, 0.33; under A3G A21G U41A U72C, 0.13.
As to A3G A35G G42U U48A, the self-cleavage turned out to be 0.49.
Under A3G C23G U72C stands 0.15; under A3G A18U U31C U41C, 0.26; under A2U G22A A35G, 0.54.
With A3G A35U A56G A57U, the self-cleavage came out at 0.19.
The result for A2U U26C A45U U74C reads 0.39; that for A3C A15C A35G A45U C59A, 0.32; that for A3G A15G G61C U67C U80A, 0.48.
For A3G A35U G36A U54C A57U A77U, the self-cleavage is 0.25.
The result for A3G A18G U51C U72A reads 0.48; that for A3G A5U A28U A35U U41A U54A, 0.3; that for A3G A20U A35U C50A U72C, 0.24.
Consider A3G G7C G19U U72A U78A, for which the self-cleavage amounted to 0.28.
On to A3G A56G U69C, for which the self-cleavage was found to be 0.41.
Under A3G A5U A18G C29A stands 0.15; under A3G A13G U31C C40A, 0.84.
In the case of A3G A45U U48C, the self-cleavage was determined as 0.33.
As to A3G A5U A35U U41A A45U U66A, the self-cleavage was found to be 0.13.
The result for A3G A13U A21G U25A U69A reads 0.11; that for A3G A18G C23A, 0.1.
Under A3G A18G U54C U78C stands 0.51; under A3G C14U G16A U26C U58C U78C U80C, 0.07; under A3G G6A A20G U26C U58C, 0.07.
Turning to A3G A21G G33A U43C A64U U80C, the self-cleavage was determined as 0.08.
Turning to A3G C23U U58G, the self-cleavage was 0.12.
The result for A3G A45U U67C reads 0.28.
For A3C A64U U69A G73A, the self-cleavage was 0.26.
The result for A2U U25A G36U C50A G53A A77G reads 0.12; that for A3G C14A A18U U25C U51A U69C, 0.06; that for A3G A5G A45G U49A C79U, 0.49.
The result for A3G A5U A45C U48C U58C A64G U69C reads 0.42; that for A3G A15U U26A U31A U60G U80C, 0.1; that for A3G A28C U60C, 0.11.
The result for A3G C4A A5G C17U A21U U26C C44U reads 0.34; that for A3G A13U A15U U41C A47G U69A A77U, 0.24.
As for A3G A20G U31C U58A U72C, the self-cleavage amounted to 0.37.
The result for A3G A15G C32U A56G reads 0.59; that for A3G A13C U54A U72C U80A, 0.99.
The result for A3G A5G A35G U43C reads 1.02.
The result for A3G A13G A28U U78C reads 0.43; that for A3G A45U U69A, 0.15.
On to A3G A5G U51C U60C U69A U72C, for which the self-cleavage came to 0.22.
In the case of A3G C39U U72A, the self-cleavage was found to be 1.05.
The result for A3C U41C U54C A57G U80A reads 0.9; that for A3G A21G C44U A56G U69G, 0.24; that for A3G A35G G36A, 1.06.
Under A3C U51C U78C stands 0.94; under A3G A21G U41A A56U U72A, 0.08.
Consider A3G A18G A45U, for which the self-cleavage stood at 0.36.
The result for A3G C14U A18U U25C A45U U74C U80C reads 0.06; that for A3C A28U U54A A56G U60C, 0.44.
The result for A3G A13G A20G U49C reads 0.53; that for A2U G9A C32G G46U U54C U69A, 0.04; that for A3G G6A C11G G22A A45G U49C, 0.07.
A3G G7A C37G A45U A47U: the self-cleavage came out at 0.06.
Under A3G A18G G19U A35U C62U A64G U78G stands 0.12; under A3G A18G U76G C81U, 0.96; under A3G A13U U43C A65G U72C U78A, 0.52.
Under A3G A56G U60C stands 0.22; under A3G A21G U74C, 1.05.
The result for A3G A5G A18G U58C U69C reads 0.13; that for A3G C44U A64U, 0.41.
Regarding A3C U26G U41G A56G A65U U78C, the self-cleavage came to 0.04.
Regarding A3G A15G A28G A56G G63A, the self-cleavage stood at 0.35.
Turning to A3G A15C A20G A35U U48C U67C U74C, the self-cleavage was 0.37.
Under A3G A13G C62U U66C U80C stands 0.36; under A3C U43C U60A, 0.56.
As to A3G A5U U58C C59U U80A, the self-cleavage came out at 0.21.
Consider A3G A35U A45U U58A, for which the self-cleavage was determined as 0.25.
As for A3G C34U U43G, the self-cleavage came to 0.11.
Under A2U U51C G55C G70C stands 0.2; under A3G A45G U66C U72C A77G, 0.26.
For the variant A3C A35U G53A, the self-cleavage was found to be 1.
Regarding A3G A13U U60C U72C U76C, the self-cleavage turned out to be 0.48.
The result for A3G C14G U41C A57G U69A reads 0.29; that for A3G A21U U54C U72C, 0.52; that for A3G C23G U26C U78G, 0.06.
With A3C G9A C38G A64U U78C, the self-cleavage worked out at 0.07.
Take A3G C62A U72A U78C: the self-cleavage was 0.32.
The result for A3G A20G A28G C40A A45U reads 0.09; that for A3G A5U A13U A35C U72C, 1.09; that for A3G C4U C32U C59U U60A, 0.07.
In the case of A3G C12U A20U U49C U69C U80C, the self-cleavage is 0.
For A3C G7A C12U U31A A35U, the self-cleavage came out at 0.06.
Under A3G C11A A20G U51A A57G U78C stands 0.03; under A3G A28U U41C U48C U78A U80A, 0.28.
Take A3G G6C U25A U31A C34A U41A: the self-cleavage came out at 0.35.
A2U U51C U54C A64G: the self-cleavage amounted to 0.42.
The result for A3G A5U A21C U48C U80C reads 0.16; that for A3G A13U U43A U67C, 0.39; that for A2U U54C U58C, 0.3.
Turning to A3G A47G U60C, the self-cleavage is 0.43.
The result for A3G C12A U49C U78C reads 0.24; that for A3G A18G G42A U78C, 0.14.
The result for A3C U60C U72A U78C reads 0.52; that for A3G A35U U76A U78C, 0.6.
The result for A3G C12U U76C reads 1.14; that for A3C G8A U67G U80C, 0.04.
With A3G A21G A45G, the self-cleavage turned out to be 0.63.
The result for A3G C4G C44A reads 0.71; that for A3G A35U U69A, 0.34; that for A3G A5G A28G C62A U66C, 0.37.
The result for A2U U41C A64G C68A G70A reads 0.16; that for A3G C14G U31C U41C U69A, 0.41; that for A3G A21G G46A, 0.33.
The result for A3G A13C U67C reads 0.28; that for A3G G7A A21G A35U A64G, 0.05.
Take A3G A21C A45G U54C U72A: the self-cleavage is 0.41.
The result for A3G C17G U25C U26A U51C U66G reads 0.08.
Under A3G A13U A18U U25A U41C C44U stands 0.09.
